In paper PMC6919601, “Identification of Plasmodium dipeptidyl aminopeptidase allosteric inhibitors by high throughput screening” (PLoS ONE, 2019):
Screen size: about 110,000 compounds; about 230 (0.21%) showed an effect of 50% or more. This is one part of the list.

target: DPAP1 (Plasmodium falciparum, UniProt Q8IIJ9); assay: primary screen, percent inhibition; read by cleavage of a fluorogenic dipeptide substrate; higher = more effect of the substance; set-up: species or system P. falciparum D10 trophozoite lysates; single well
Sequence (Q8IIJ9 whole entry, looked up): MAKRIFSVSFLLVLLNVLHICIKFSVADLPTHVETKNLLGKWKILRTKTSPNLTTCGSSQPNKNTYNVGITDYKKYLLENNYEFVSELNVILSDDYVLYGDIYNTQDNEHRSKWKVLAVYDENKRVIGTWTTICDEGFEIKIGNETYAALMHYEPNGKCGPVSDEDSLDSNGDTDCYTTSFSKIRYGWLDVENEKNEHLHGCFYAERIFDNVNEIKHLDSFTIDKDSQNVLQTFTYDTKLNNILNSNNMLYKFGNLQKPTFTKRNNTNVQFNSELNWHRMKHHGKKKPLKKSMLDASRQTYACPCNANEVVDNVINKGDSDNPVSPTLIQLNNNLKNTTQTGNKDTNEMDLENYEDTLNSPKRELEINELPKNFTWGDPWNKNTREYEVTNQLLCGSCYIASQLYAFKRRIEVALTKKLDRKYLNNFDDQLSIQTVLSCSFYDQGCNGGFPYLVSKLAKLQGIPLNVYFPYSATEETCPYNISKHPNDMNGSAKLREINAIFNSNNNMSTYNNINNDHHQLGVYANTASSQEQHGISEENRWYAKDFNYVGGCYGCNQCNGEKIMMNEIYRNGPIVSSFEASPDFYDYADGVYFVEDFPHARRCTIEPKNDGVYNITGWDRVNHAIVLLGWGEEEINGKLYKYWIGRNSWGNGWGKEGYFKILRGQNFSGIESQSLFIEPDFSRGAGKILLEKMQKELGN
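Further: 30 min substrate incubation versus DMSO and 10 µM JCP410 controls.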

Point of comparison: `CCCCOC(=O)C1CCCC(C)N1` (stereo not drawn), “% Inhibition @ 10 uM” value 4.08%. Against it:
- OCC1CCCN1Cc1cccc(F)c1 (stereo not drawn) — lower, -5.94%
- O=C(NCCO)C(=O)NC1CCCCC1 — lower, -1.75%
- COc1cccc(OCCNC(=O)c2cccc3ccccc23)c1 — lower, -9.11%
- CCCCN1CCCC1C(=O)NCc1ccc(OC)c(OC)c1 (stereo not drawn) — higher, 7.24%
- Cc1cc(=O)n(C)c2c1C(=O)CC(C)(C)C2 — lower, 0.35%
- Cc1ccc2oc(=O)c3cnn(CC(=O)N4CC(C)CC(C)C4)c3c2c1 (stereo not drawn) — lower, -0.0115%
- CN(C)c1nc(N2CCOCC2)nc(N(c2ccccc2)c2ccccc2)n1 — lower, 0.968%
- CCN(CC)CCCNC(=O)c1ccc(CSc2nc3cccnc3n2Cc2ccccc2)cc1 — lower, 2.72%
- CCC(C(=O)NC1CCCC1)n1c(SCc2ccccc2F)nc2ccncc21 (stereo not drawn) — lower, 2.65%
- Cc1ccc2c(c1)cc1c(=O)n(CC(=O)N3CCC4(CC3)OCCO4)nc(C)n12 — lower, -1.7%
- Cc1cc(Cl)cc(Cl)c1OCC(=O)NCc1ccco1 — lower, 3.04%
- CCOc1ccc(CC(=O)NCc2cn3c(C)csc3n2)cc1 — lower, 2.57%
- COC(=O)c1c(NC(=O)c2oc(=O)c3ccccc3c2-c2ccccc2)sc(C)c1C — lower, 3.76%
- CN(C)CCCN(C(=O)CN1C(=O)c2ccccc2C1=O)c1nc2ccc(F)cc2s1 — higher, 6.31%
- CCN(CC)CCSc1nc2cc(OC)ccc2[nH]1 — higher, 4.57%
- COC(=O)C1=C(NC(=O)c2ccc(C(C)(C)C)cc2)CCS1 — lower, -1.84%
- CC(C)OCCCN(Cc1ccccc1F)C(=O)Nc1ccccc1 — lower, 1.19%
- Cc1ccc(S(=O)(=O)NNC(=S)Nc2ccccc2)cc1 — lower, -0.744%
- CC[C@H](NC(=O)[C@H](Cc1c(F)cccc1F)NC(=O)c1ccc(-c2cc(C(=O)O)ccc2Cl)cc1)C(=O)c1nc2ccccc2o1 — lower, -6.56%
- Cc1ccc(/C=C(\NC(=O)c2ccccc2)C(=O)NC2CCCCC2)o1 — lower, -0.725%
- Cc1c(NC(=O)NCCCN2CCOCC2)sc2nc3n(c(=O)c12)CCC(C)CC3 (stereo not drawn) — higher, 6.35%
- COc1ccc(NC(=O)c2cc(F)c(F)cc2Cl)cn1 — lower, -2.5%
- N#C/C(=C/c1ccc(N2CCOCC2)o1)C(=O)Nc1ccc(Cl)cc1 — lower, 2.65%
- Nc1nonc1-n1nnc(C(=O)O)c1-c1ccc2c(c1)OCO2 — lower, 1.62%
- COc1ccc(NC(=O)c2cnccn2)cc1 — lower, 0.177%
- Cc1ccc(S(=O)(=O)Nc2ccccc2C(=O)NC(C)c2ccccc2)cc1 (stereo not drawn) — lower, -1.99%
- CCCNS(=O)(=O)c1c(C)[nH]c(C)c1C(=O)OCC — lower, -4.21%
- Cc1ccc(S(=O)(=O)/N=C(/NC2CCCCC2)c2ccccc2)cc1 — lower, -3.96%
- COc1ccc(NC(=O)c2sc3nc4c(cc3c2N)CC(C)CC4)c(OC)c1 (stereo not drawn) — lower, 2.82%
- Cc1cccc(C)c1NC(=O)/C=C/C(=O)O — lower, -2.55%
- CC1(C)Cc2c(c(N3CCOCC3)nc3sc4c(=O)n(Cc5ccco5)cnc4c23)CO1 — lower, 1.72%
- CCCn1c2ccccc2c2cnn(CC(=O)N(C)CCCN(CC)CC)c(=O)c21 — lower, 1.43%
- COc1ccc2oc(C)c(C(=O)c3ccc(Br)cc3)c2c1 — lower, -0.482%
- C=Cc1ccc(Cn2c(C)c(CNCc3ccc(OCC)cc3)c(C(=O)O)c2C)cc1 — lower, -1.92%
- COc1ccc2nc3sc(C(=O)N4CCN(C)CC4)cc3cc2c1 — lower, -5.06%
- Cc1cccc(N2C(=O)C(Cl)=C(Nc3ccccc3)C2=O)c1 — lower, 3.92%
- O/N=C1\CC(c2ccccc2)OC12CCCCC2 (stereo not drawn) — lower, -5.62%
- C=Cc1ccc(Cn2c(C(=O)O)c(CNCc3ccccc3)c3ccccc32)cc1 — higher, 4.9%
- COc1cc(C2C(C#N)=C(N)N(c3nc[nH]n3)C3=C2C(=O)CC(C)(C)C3)ccc1OCc1ccccc1 (stereo not drawn) — lower, -6.18%
- COc1ccc(S(=O)(=O)c2c(C(=O)c3ccccc3)cnc3cc4c(cc23)OCCO4)cc1 — lower, -7.13%
- Cc1ccc(CNC(=O)c2ccc3c(O)nc4c(-c5ccccc5)nnn4c3c2)cc1 — lower, 1.68%
- CC(c1ccccc1)N1C(=O)NC(NC(=O)c2cccnc2)(C(F)(F)F)C1=O (stereo not drawn) — higher, 7.84%
- CC(=O)NC(=O)c1ccc(-c2ccc(Cl)cc2)o1 — lower, -7.27%
- CCC(=O)N1c2ccccc2N=C2CC(C)(C)CC(O)=C2C1c1cccn1C (stereo not drawn) — lower, -3.26%
- CCOc1ccc(CNC(=O)C2CCCN(S(=O)(=O)N(C)C3CCCCC3)C2)cc1 (stereo not drawn) — lower, 3.35%
- Cc1sc(NC(=O)Nc2ccc(Cl)cc2)c(C(N)=O)c1C — lower, -0.891%
- CCOc1c(Cl)cc(C2C3=C(CCCC3=O)N(CC(=O)O)C3=C2C(=O)CCC3)cc1OC — lower, -17.9%
- CC(C)c1ccc(/C=C/C(=O)N2CCCC2)cc1 — higher, 17%
- O=C(c1ccc2nc(-c3ccccc3)c(-c3ccccc3)nc2c1)N1CCC2(CC1)OCCO2 — higher, 5.17%
- CCOC(=O)c1c(C)nc2ccc(Cl)cc2c1-c1ccccc1 — higher, 7.5%
- Cc1ccc(-c2cc(C(=O)Nc3ccc(S(=O)(=O)Nc4ncccn4)cc3)c3ccccc3n2)o1 — higher, 5.63%
- CCOc1ccccc1N1CCN(C(=O)c2ccccc2)CC1 — higher, 5.73%
- COC(=O)C1=C(C)NC(=O)CC1c1c(F)cccc1Cl (stereo not drawn) — lower, 3.05%
- CN(C)c1ccc(/C=C(\C#N)c2nc(-c3ccc(Cl)cc3)cs2)cc1 — lower, -2%
- CCCOc1ccc(/C=c2\sc3nc(-c4ccccc4OC)nn3c2=O)cc1 — lower, 3.87%
- O=C1CCCc2nc(-c3ccccc3)cc(-c3ccccc3)c21 — lower, -0.233%
- CCOC(=O)c1cc(CC)sc1NC(=O)c1ccc2c(c1)OCO2 — lower, -8.17%
- Brc1ccccc1OCCCCCN1CCCC1 — higher, 5.95%
- O=C(NCc1ccccc1)C(=O)NC1CCCC1 — lower, -9.18%
- CCc1nc2cccnc2n1-c1ccc(CC(=O)NCc2ccc(F)cc2)cc1 — lower, -1.68%
- CCc1ccc2ncc(S(=O)(=O)c3ccc(C)cc3)c(O)c2c1 — lower, 1.42%
- C=CCc1cc(/C=C2/C(=N)N3C(=NC2=O)SN=C3S(C)(=O)=O)cc(OC)c1O — lower, 3.48%
- CC1CCCN(C2CC(=O)N(c3ccc(Br)cc3)C2=O)C1 (stereo not drawn) — higher, 4.12%
- CC(C)c1ccc(/C=C2/C(=N)N3C(c4ccccc4)=CSC3=NC2=O)cc1 — lower, -3.75%
- Cc1cc(C)n(-c2nc(-c3ccccc3)cc(-c3ccccc3O)n2)n1 — lower, 0.827%
- CN(CCCNC(=O)c1ccc(CS(=O)c2ccc(Br)cc2)o1)Cc1ccccc1 (stereo not drawn) — lower, -1.57%
- COc1ccc(Cl)cc1S(=O)(=O)NCc1nc2nc(C)cc(C)n2n1 — lower, -2.17%
- O=C(O)CCCNC(=O)c1ccncc1 — lower, 3.32%
- O=C(O)c1cc(-c2ccc3c(c2)OCO3)nc2cc3c(cc12)OCCO3 — lower, 0.559%
- O=C(NCC1CCCO1)c1cc(S(=O)(=O)N2CCCCC2)c[nH]1 (stereo not drawn) — lower, 1.17%
- Cc1sc2ncn(CC(=O)NCC(=O)N(C)C3CCCCC3)c(=O)c2c1C — lower, -2.17%
- COc1ccccc1-c1c(C)nn2c(SCC(=O)N(C)Cc3ccccc3)cc(C)nc12 — lower, -5.32%
- CC(C)C[C@H](NC(=O)OCc1ccccc1)C(=O)NC(C#N)CNC(=O)OC(C)(C)C (stereo partly drawn) — lower, -1.41%
- C#CC(C)(C)NC(=O)CCCCCN1C(=O)c2ccccc2C1=O — lower, -1.98%
- c1coc(C2NCCc3ccccc32)c1 (stereo not drawn) — lower, 2.16%
- CN1C(=O)C(=CNc2ccccc2-c2ccccc2)C(=O)N(C)C1=O — lower, -4.67%
- COC(=O)C1=C(C)N(Cc2ccco2)C(=O)/C1=C\c1cc(C)n(-c2cc(C)ccc2OC)c1C — lower, 1.63%
- CC(C)c1ccc(N2C(=O)CSC23C(=O)Nc2ccccc23)cc1 (stereo not drawn) — lower, -1.06%
- CC1CCN(c2nnc(-n3cccc3CN3CCN(c4ccccn4)CC3)s2)CC1 — lower, 2.09%
- COc1ccc(C2NC(=O)c3[nH]nc(-c4cccs4)c32)cc1 (stereo not drawn) — lower, 0.208%
- CC(NC(=O)c1cccs1)c1cc2c(cc1Cl)OCCCO2 (stereo not drawn) — lower, -1.28%
- O=S(=O)(NCC(c1ccccc1)N1CCC(O)CC1)c1ccc(Cl)cc1 (stereo not drawn) — lower, -0.671%
- O=C(Nc1ccc2c(c1)OCO2)C1c2ccccc2Oc2ccccc21 — lower, -0.413%
- O=C(Nc1ccc2oc(-c3ccc(F)cc3)nc2c1)c1ccc(F)cc1 — lower, -5.92%
- O=[N+]([O-])c1ccc(-c2cn3ccsc3n2)cc1 — lower, -5.5%
- CCOc1ccccc1CNC(=O)CN(C)c1nn2c(=O)cc(C)nc2s1 — higher, 4.55%
- O=C1NC(=S)N(c2cccc(Cl)c2)C(=O)/C1=C/c1cccs1 — lower, 3.32%
- C=CCn1c(SCC(=O)N2CCCCCC2)nc2sc3c(c2c1=O)CCC3 — lower, 1.35%
- O=C(Cc1c(O)nc2ccccc2c1O)Nc1ccc(F)cc1 — lower, -4.98%
- NC1=NC(=O)/C(=C\c2cccc(C(F)(F)F)c2)S1 — lower, 1.13%
- CCCOc1ccc(C2C3(C#N)C(N)=NC4(OCCO4)C23C#N)cc1 (stereo not drawn) — lower, 0.413%
- Cc1ccc(SCc2cc(O)nc(/N=C(\N)Nc3ccccc3)n2)cc1 — lower, -3.14%
- COc1cccc(N2C(=O)C3C4C=CC(C4)C3C2=O)c1 (stereo not drawn) — lower, -8.19%
- COc1ccc(C2CC(=O)Nc3[nH]nc(-c4ccc(Cl)cc4)c32)c(OC)c1 (stereo not drawn) — lower, 3.39%
- Cc1cc(N[C@H]2CCCCNC2=O)nc2ccccc12 — lower, -1.32%
- COc1ccc2oc(=O)cc(CN3CCN(Cc4ccc(OC)c(OC)c4OC)CC3)c2c1 — lower, 0.00706%
- CC1CCCC(NC2CN3CCC2CC3)C1C (stereo not drawn) — lower, -5.11%
- O=S(=O)(NCc1ccccn1)c1ccc(-c2cc(C(F)(F)F)no2)s1 — lower, -5.31%
